According to PubChem BioAssay AID1645882 (National Center for Advancing Translational Sciences (NCATS), 2021):
The campaign covered roughly 16,000 compounds. About 120 (0.75%) were called active. Not shown: some 4% with an inconclusive outcome. The call rests on the fitted dose curve; in most records, active means well fitted inhibition curve with a large enough effect; inconclusive means small, poorly fitted or top-dose-only effect; inactive means no such curve, though single readings can be large or run the other way. This is one part of the list.

Molecular target: Rap guanine nucleotide exchange factor 3 (Homo sapiens) (UniProt O95398)
Assay: Validation qHTS for antagonist of cAMP-regulated guanine nucleotide exchange factor 3 (EPAC1);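 further: plate controls were DMSO for no effect and ATA control for full effect; nearly all actives have a fitted effect of over 75% in size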
Conditions: EPAC1 Rap1B-BODIPY-GDP exchange, fluorescence; series mostly up to 150 µM; activity change, negative = inhibition: at the top concentration
Procedure, shortened: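 Nucleotide exchange followed as fluorescence loss when BODIPY-GDP leaves Rap1B (480 nm excitation, 540 nm emission), read at 5 min intervals over 30 min. Reaction: 100 nM EPAC1, 250 nM RAP1B-BODIPY-GDP, 50 uM GDP; ATA and DMSO define normalization.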

Sequence of UniProt O95398 (O95398 whole entry, looked up): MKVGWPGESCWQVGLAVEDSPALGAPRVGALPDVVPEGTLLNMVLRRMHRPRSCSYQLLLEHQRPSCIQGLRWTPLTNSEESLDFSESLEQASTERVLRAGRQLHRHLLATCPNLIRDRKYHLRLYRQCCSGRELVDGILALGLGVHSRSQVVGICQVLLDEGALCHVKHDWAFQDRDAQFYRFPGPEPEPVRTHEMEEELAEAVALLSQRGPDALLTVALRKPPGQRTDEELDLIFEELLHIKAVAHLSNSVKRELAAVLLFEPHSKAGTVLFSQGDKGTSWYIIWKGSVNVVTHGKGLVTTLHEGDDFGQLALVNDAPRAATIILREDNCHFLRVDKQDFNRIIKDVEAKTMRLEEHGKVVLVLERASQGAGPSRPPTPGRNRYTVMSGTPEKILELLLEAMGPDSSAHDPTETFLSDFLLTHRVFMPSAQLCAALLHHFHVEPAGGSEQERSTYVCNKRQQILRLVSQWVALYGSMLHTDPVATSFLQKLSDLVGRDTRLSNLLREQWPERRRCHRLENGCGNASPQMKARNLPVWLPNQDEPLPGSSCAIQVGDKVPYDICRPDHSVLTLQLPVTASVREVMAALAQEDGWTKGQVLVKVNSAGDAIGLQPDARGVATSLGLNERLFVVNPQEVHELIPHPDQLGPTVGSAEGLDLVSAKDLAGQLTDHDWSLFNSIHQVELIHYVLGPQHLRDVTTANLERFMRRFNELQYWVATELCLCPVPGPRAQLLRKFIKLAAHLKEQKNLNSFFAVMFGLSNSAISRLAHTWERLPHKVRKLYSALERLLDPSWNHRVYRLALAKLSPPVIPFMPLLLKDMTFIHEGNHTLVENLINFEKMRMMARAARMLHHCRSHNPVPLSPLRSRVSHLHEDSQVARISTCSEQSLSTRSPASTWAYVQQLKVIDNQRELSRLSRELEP

Activity change, negative = inhibition, inactive:
CN(Cc1cc(Br)cc(Br)c1N)C1CCCCC1 19.4%
Cn1nccc1C(=O)NCC1CCC2(CCN(Cc3cccc4ncccc34)CC2)O1 (centres undefined) 14.3%
CC1(C)O[C@@H]2C[C@H]3[C@@H]4C[C@H](F)C5=CC(=O)C=C[C@]5(C)[C@H]4[C@@H](O)C[C@]3(C)[C@]2(C(=O)CO)O1 4.52% [at 75.8 µM]
COC(=O)[C@@H]1C[C@@H](NC(=O)c2cccc3c(C)c(C)[nH]c23)CN1Cc1cccc2ccccc12 16.7%
C[C@@H]1CC[C@H]2[C@H](C)[C@H]3CC[C@H]4C5[C@@H](O)CC6=CC(=O)CC[C@]6(C)[C@H]5C[C@H]4C3C(=O)N2C1 (some centres undefined) 33.8%
CCOC(=O)C[C@H]1c2cc(F)ccc2S(=O)(=O)N1C1CCCCC1 -12.8%
Cn1cnc2c(F)c(Nc3ccc(Br)cc3Cl)c(C(=O)NOCCO)cc21 30.4%
CC(C)Oc1ccc(C(=O)NCC2Cc3cc(F)cc(-c4cnccn4)c3O2)cc1 (centres undefined) 0.767%
O=C(Nc1cccc(F)c1)N1CC2(CCN(C(=O)c3cccc(F)c3)CC2)C1 0.871%
COCCn1c(=O)c(-c2cn(C)c3ccccc23)nc2cncnc21 15.3%
CC(=O)OC1CC2C(C)(C)C(=O)CC[C@]2(C)C2CC[C@@]3(C)C(c4ccoc4)OC(=O)C4OC43[C@]12C (some centres undefined) -21.3%
C=C1C2CC[C@@]3(C)C(c4ccoc4)OC(=O)C[C@@]13OC1CC(O)C(C)(C)C(CC(=O)OC)[C@@]12C (some centres undefined) -1.21%
CCCCCCCCCCCCCCCC(=O)N[C@H](CN1CCOCC1)[C@H](O)c1ccccc1 22.5% [at 15.3 µM]
COc1ccccc1CNc1ncncc1-c1cccc(C#N)c1 17.6%
Cc1ccnc2ccc(I)cc12 16.8%
NC(=O)c1ccccc1 -0.597% [at 75.8 µM]
COc1ccccc1C1CN(Cc2cccnc2)Cc2ccccc2O1 (centres undefined) 12.2%
O=C(c1csnn1)N1CCC2(CCCN(Cc3cc(C(F)(F)F)cc(C(F)(F)F)c3)C2)CC1 -13.8%
O=c1cnc2cnc(N3CCOCC3)nc2n1CCc1ccccc1 -0.293%
CC(=O)NCCNc1ncnc2ccc(-c3c(C)noc3C)cc12 7.88%
NC(N)=NC(N)=Nc1ccccc1
O=C(Nc1ccccc1)N1CCCC2(CCN(C(=O)c3cnccn3)CC2)C1 15.6%
CCCCCC=CCC=CCCCCCCCC(=O)OCC 15%
c1ccc(CNc2ncncc2-c2ccoc2)cc1 14.6%
CCn1c(-c2ccccc2F)nc2cc(C(=O)NC(c3ccccn3)C(F)(F)F)cc(NC(C)=O)c21 (centres undefined) 19.5%
NCCc1ccc(O)c(O)c1
CC(=O)N1CCC[C@@]2(CCN(C(=O)Nc3cccc(C#N)c3)C2)C1 17.2%
COc1ccccc1-c1nc(N2CCOCC2)c2ccccc2n1 8.2%
OC[C@H]1OC([S-])[C@H](O)[C@@H](O)[C@@H]1O.[Au+] (some centres undefined) -17.7%
COc1ccc2c(=O)cc(-c3ccc(O)cc3)oc2c1 18.6%
O=C(c1cccc(Cl)c1)N1CCCC(Cn2cc(C(=O)N3CCCC3)nn2)C1 (centres undefined) 6.26%
C[C@H](Cc1ccc(O)c(O)c1)[C@@H](C)Cc1ccc(O)c(O)c1
CCC1CN(Cc2c(C)nc3sccn23)Cc2cc(OC)ccc2O1 (centres undefined) 20.8%
CCN1CCCC1CNC(=O)c1cc(S(=O)(=O)CC)ccc1OC (centres undefined)
C[C@H](O)[C@H](O)[C@H]1CNc2nc(N)[nH]c(=O)c2N1 27.6%
CC1CC[C@@]23CCC4(C)[C@@]5(C)CCC6C(C)(C)C(O)CC[C@@]6(C)C5C=C[C@@]4(OC2=O)C3C1C (some centres undefined) 4.77%
Cc1c(C(=O)N2CCCC(c3ccccc3)C2)sc2ncnc(NCCc3ccccn3)c12 (centres undefined) 4.72%
COc1cc(=O)n2c(c1C(=O)NC(C)c1ccco1)CCN(C(=O)c1ccc(F)cc1Cl)CC2 (centres undefined) 10.1%
CCN(CCO)C(=O)c1cnn(-c2ncc3c(n2)-c2ccccc2CCC3)c1C1CC1 -7.5%
CN(Cc1ccccc1)c1ccc(C=O)cc1 16.7%
COC(=O)[C@@H]1CCCN1C(=O)c1c(OC)cc(=O)n2c1CCN(Cc1cc(OC)ccc1F)CC2 10.3%
CC(C)(C)N1[C@@H](CC(=O)O)c2cc(C(F)(F)F)ccc2S1(=O)=O -5.04%
Cn1c(=O)c(-c2cc(F)cc(F)c2)nc2cnc(N3CCOCC3)nc21 0.301%
N#Cc1ccc(CN2CCC3(CC2)CCN(C(=O)c2ccncc2)CC3)cc1 22.8%
C[C@H]1[C@H]2CC[C@H]3[C@@H]4CC=C5C[C@@H](N(C)C)CC[C@]5(C)[C@H]4CC[C@]23CN1C 16.3%
C=C[C@@H]1c2c(F)cccc2N(S(=O)(=O)c2ccc(C)cc2)[C@H](c2ccc(C(=O)OC)cc2)C1(C#N)C#N -12.1%
O=C1CCN(CCc2ccccc2)CCN1[C@H](CO)Cc1ccccc1 -2.84%
O=C1O[C@H]2[C@H](O)[C@@H]1OC(O)[C@H]2O (some centres undefined) 35.4%
CC(C)C(=O)c1c(C(C)C)nn2ccccc12
COP(=O)(OC)OC(c1ccc(Cl)cc1)P(=O)(OC)OC (centres undefined) 8.87%
COc1ccc(CN2CCC(n3cc(C(=O)N4CCCCC4)nn3)CC2)c(OC)c1 -4.06%
CCCC(O)C(CC)CO (centres undefined) 8.68%
CC(CN(C)C)CN1c2ccccc2CCc2ccccc21 (centres undefined)
NC(=O)c1cc[n+](CC2=C(C(=O)O)N3C(=O)C(NC(=O)C(c4ccccc4)S(=O)(=O)[O-])C3SC2)cc1 (centres undefined) -8.16%
Cc1noc(C)c1-c1nccc(Nc2ccc(F)cc2)n1 21.4%
COc1ccc(-n2c(=O)cnc3cnc(N4CCOCC4)nc32)cc1 6.05%
O=C(NCCN1CCOCC1)c1cnn(-c2ncc3c(n2)-c2ccccc2CC3)c1C1CC1 21.4%
COC(=O)[C@H]1[C@H]2C[C@H]3c4[nH]c5ccccc5c4CCN3C[C@H]2CC[C@@H]1O
Cc1ccccc1C(=O)O[C@H]1[C@H](Cc2ccccc2)NS(=O)(=O)[C@H]2CC3C=C[C@]12O3 -19.2%
CN(C)c1nc2cc3c(cc2cc1CN(CC1CCCO1)C(=O)/C=C/c1cccs1)OCO3 (centres undefined) 17.2%
Cc1cc2c3c(cccc3n1)C(=O)c1ccccc1-2 13%
COc1cc(=O)n2c(c1C(=O)N(C)Cc1nonc1C)CCN(Cc1c(F)cccc1F)CC2 12.8%
CC(C)NCC(O)COc1cccc2[nH]ccc12 (centres undefined)
OC(CCN1CCCC1)(c1ccccc1)C1CCCCC1 (centres undefined)
